Each structure is given as a SMILES string. Hit rate of the full screen: of about 52,000 compounds, about 4,300 (8.3%) were called active. Cut-off read from the data, not from the text of the source: active = survival mostly below about 52% (no sharp cut-off); inactive = mostly above about 56%. Some of the results follow.

This experiment relates to DeltatarO mutant. Put plainly: S. aureus survival, RN4220 and DeltatarO strains – OD600, teichoic acid synthesis inhibitors, primary screen (AID 463173). The conditions noted are these: S. aureus RN4220 wild type/DeltatarO growth, OD600, 18 h, hits give low values, screened at 18.75 µg/mL (by protocol).
Turning to `CCN(CC)CCn1c(=N)n(CCOc2ccccc2Cl)c2ccccc21`, the survival is inactive: 59%.

Take `Cc1cccc2cc(CN(C(=O)c3ccncc3)C3CCCC3)c3nnnn3c12`: the survival was inactive: 90%.

As to `O=C(CN1C(=O)CC(c2ccco2)Sc2ccccc21)Nc1cccc(C(F)(F)F)c1` (stereo not drawn), the survival was inactive: 103%. Consider `CC1CCN(S(=O)(=O)c2cc(C(=O)NCc3ccc(N(C)C)cc3)n(C)c2)CC1`, for which the survival was inactive: 93%. In the case of `O=C(Nc1cccc(C(F)(F)F)c1)c1cccs1`, the survival is inactive: 95%. Consider `CC(C)c1ccc(S(=O)(=O)c2cn(CC(=O)Nc3ccc(F)cc3)c3ccccc3c2=O)cc1`, for which the survival was inactive: 68%. Regarding `O=C(CSc1nc2c(c(=O)[nH]1)CCCC2)Nc1ccccc1C(F)(F)F`, the survival was inactive: 58%. For the compound `COc1ccc(S(=O)(=O)Nc2cccc(-c3ccc(N4CCCCCC4)nn3)c2)cc1F`, the survival is inactive: 94%. Then `CCc1ccc(CNC(=O)c2cnc(N3CCCCC3)c3ccccc23)cc1`, with inactive: 94%; and `COc1ccc(CCNC(=O)C(=O)Nc2ccc(C)c(C)c2)cc1`, with inactive: 75%; and `Cc1ccccc1CNC(=O)c1ccc(NC(=O)N2CCCCc3ccccc32)cc1`, with inactive: 80%.

Turning to `COc1cc(CNCCSc2nnnn2C)ccc1OCc1ccccc1C`, the survival was inactive: 56%. Then `Cc1c(CN(C)C(=O)c2cc(-c3ccccc3)nc3ccc(Br)cc23)cnn1C`, with active: 30%; and `Cc1oc2ccc(NS(=O)(=O)c3ccc(F)cc3)cc2c1C(=O)O`, with inactive: 193%; and `Cc1ccc(N2C(=O)SC(N(CC(=O)O)c3ccccc3)C2=O)cc1` (stereo not drawn), with inactive: 102%. The same measure for `Cc1ccc(-c2n[nH]c3c2C(c2ccccc2Cl)N(c2ccc(C(=O)O)cc2)C3=O)cc1` (stereo not drawn): inactive: 103%; for `CCCOc1ccc(C2=NC(c3ccncc3)=Nc3ccc(C)cc3N2)cc1`: inactive: 55%. As for `Cc1ccc(S(=O)(=O)c2c(Nc3ccc(C)c(C)c3)sc(C(=O)c3ccc4c(c3)OCO4)c2N)cc1`, the survival was inactive: 125%. Then `CSc1ncc(Cl)c(C(=O)Nc2c(C(=O)Nc3cccc(C)c3)oc3ccccc23)n1`, with inactive: 86%; and `CNc1nc(C)c(C(=O)OCC(=O)OC)s1`, with inactive: 81%; and `Cc1ccccc1-c1noc(-c2ccc(N3CCC(C)CC3)c([N+](=O)[O-])c2)n1`, with inactive: 55%. For the compound `CCc1ccccc1NC(=O)Cn1c(=O)n(Cc2ccccc2)c(=O)c2c(C)c(C(=O)N(C)C)sc21`, the survival is inactive: 67%.

`Cc1ccccc1CN1c2ccccc2-c2nc(SCC(=O)c3ccc(Cl)cc3)ncc2S1(=O)=O`: the survival is inactive: 81%. For `Cc1csc2nc(-c3cccc(NS(C)(=O)=O)c3)cn12`, the survival is inactive: 88%. The same measure for `Cc1ccc(NC(=O)CCN2CC(C)CC(C)C2)cc1` (stereo not drawn): inactive: 106%; for `CCOc1ccc(NC(=O)Cn2c(=O)cc(C)c3c(C)nn(C)c32)cc1`: inactive: 76%; for `CCOC(=O)c1c(NC(=S)NC(=O)c2c(I)cnn2C)sc2c1CCC(C)C2` (stereo not drawn): inactive: 83%. Then `Cc1ccc(-c2nc(C)c(CCNC(=O)C(=O)Nc3cc(C)ccc3C)s2)cc1`, with inactive: 90%. Then `Cc1csc2nc(-c3ccc(NS(=O)(=O)c4cccc(F)c4)cc3)cn12`, with inactive: 88%; and `CC(=O)NC1(NC(C)=O)CC(c2ccccc2)N(C)CC1C` (stereo not drawn), with inactive: 69%. As for `NNC(=O)c1nnn(-c2nonc2N)c1CN1CCCC1`, the survival is inactive: 96%. For the compound `CC(C)c1nc2ccc(C(=O)NCCCN3CCN(c4ccccc4)CC3)cc2o1`, the survival is inactive: 120%. Take `O=C(CN1CCN(Cc2ccc(F)cc2Cl)C1=O)NCCc1ccc(Cl)cc1`: the survival is inactive: 54%. Then `CCOc1ccc(C(=O)Nc2ccc3oc(-c4cccc5ccccc45)nc3c2)cc1`, with active: 60%; and `O=C1CN(C(=O)c2ccc(S(=O)(=O)N3CCCC3)cc2)C(c2ccccc2)c2cc(Cl)ccc2N1` (stereo not drawn), with inactive: 71%. The same measure for `O=C1CS/C(=N\N=C/c2ccccc2)N1`: inactive: 98%; for `COc1ccc(OC)c(NC(=O)N2CC(C)Oc3ccc(C)cc32)c1` (stereo not drawn): inactive: 55%.

On to `Cc1ccc(C(=O)c2cn(CC(=O)NCc3ccccc3)c3nc(C)ccc3c2=O)cc1`, for which the survival is inactive: 95%.

Turning to `COc1ccc(C(=O)Nc2nc(-c3nnn(-c4ccc(F)cc4F)c3C)ns2)cc1`, the survival was inactive: 122%. Then `COc1cccc(C(=O)Nc2ccc3nc4n(c(=O)c3c2)CCCCC4)c1`, with inactive: 90%; and `Cc1ccc(O)c(Nc2nc3ccccc3c3nncn23)c1`, with inactive: 83%; and `Cc1cc(C)n(CC(=O)Nc2cc(F)ccc2F)c(=O)c1C#N`, with inactive: 81%. As for `O=C1c2ccccc2C(=O)N1CCN1C(=O)c2ccccc2C1=O`, the survival was inactive: 78%. With `O=C(Nc1c(C(=O)c2ccccc2)oc2ccccc12)c1ccc(F)cc1`, the survival was inactive: 62%. Then `CC1=C(C(N)=O)C(c2ccccc2F)n2nc(-c3ccc(Cl)cc3)nc2N1` (stereo not drawn), with inactive: 80%; and `COC(=O)c1cc(S(=O)(=O)N2CCN(c3cc(Cl)ccc3C)CC2)c[nH]1`, with active: 12%. Then `O=S(=O)(NCC(c1ccco1)N1CCOCC1)c1ccc(F)cc1` (stereo not drawn), with inactive: 75%; and `Cc1cc(C)c2oc(C(=O)Nc3c(C(=O)c4ccccc4)oc4ccccc34)cc(=O)c2c1`, with inactive: 55%; and `Cc1ccc(CNC(=O)Cn2cc3c(n2)-c2c(oc(C(=O)N4CCOCC4)c2C)CC3)cc1`, with inactive: 80%. Then `COc1ccccc1CNc1ncnc2c1c(-c1ccccc1)cn2-c1ccc(Br)cc1`, with inactive: 80%; and `Cc1ccc(C(=O)NCCC(C)C)cc1NC(=O)c1nsc2ccccc12`, with inactive: 73%. Consider `COc1cc2c(=O)c(C(=O)c3ccc(F)cc3)cn(Cc3cccc(F)c3)c2cc1OC`, for which the survival was inactive: 85%.

As for `CCN(CC)c1ccc(NC(=O)Cn2c3ncccc3c(=O)n2-c2ccccc2)c(C)c1`, the survival is inactive: 98%.

`COc1ccc(Cl)cc1NC(=O)CSc1nnc2[nH]c(=O)cc(C)n12`: the survival is inactive: 90%. Then `CCOc1ccc(-c2nc(C(N)=O)c3c(n2)n(-c2ccc4c(c2)OCO4)c(=O)n3CC)cc1`, with inactive: 80%; and `COc1ccc(C2C=C(c3ccccc3)Nc3nc(NS(=O)(=O)c4ccc(C)cc4)nn32)cc1` (stereo not drawn), with inactive: 55%; and `CNC(=S)N1CCN(c2cccc(C)c2C)CC1`, with inactive: 69%. Regarding `Cc1c(C(=O)OC2CCCCC2)[nH]c2c1C(=O)CC(c1ccccc1)C2` (stereo not drawn), the survival was inactive: 93%.

The values above are taken from PubChem BioAssay AID463173 (ICCB-Longwood Screening Facility, Harvard Medical School, 2010).
